This data set concerns the molecule itself. Kind of data set: SEC; analytical SEC, AdvanceBio SEC column 300 Å; each analyte injected at 10 μM; 50 mM Tris pH 8, 400 mM NaCl. (Size exclusion chromatography separates by hydrodynamic size, large species first.)

B1: hPAD4 N438A (enzyme)
chain: not shown
notes: Protein arginine deiminase 4, human, point mutant (negative control); Mutant of the hPAD4 construct m1; source: cloned and expressed as hPAD4 (E. coli, Ni-NTA)
Take B1: the binding result is on record as “binds”.

B2: hPAD4 N438R (enzyme)
chain: not shown
notes: as for B1
With B2, the binding result is “binds”.

These data come from paper PMC11142921, “Antibody discovery identifies regulatory mechanisms of protein arginine deiminase 4” (Nature Chemical Biology, 2024).
